According to the BET-seq Pho4 binding data (Le et al. 2018):
Some of the results follow. The energies were worked out here from pooled read counts, against the library average; single values are noisy.

target: T1, Pho4 (S. cerevisiae) (UniProt P07270); assay: relative binding free energy (BET-seq); higher = weaker binding; conditions: reference: library average
T1 sequence: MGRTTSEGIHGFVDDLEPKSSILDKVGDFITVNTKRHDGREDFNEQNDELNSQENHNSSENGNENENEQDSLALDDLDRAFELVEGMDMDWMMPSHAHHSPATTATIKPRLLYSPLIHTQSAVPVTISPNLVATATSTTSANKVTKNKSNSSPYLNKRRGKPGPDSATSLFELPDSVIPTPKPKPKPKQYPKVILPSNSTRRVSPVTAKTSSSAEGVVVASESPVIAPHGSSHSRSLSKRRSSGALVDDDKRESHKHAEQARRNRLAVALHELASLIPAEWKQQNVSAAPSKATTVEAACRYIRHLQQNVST

| Sequence | relative binding free energy [kcal/mol] |
| --- | --- |
| AAGATCACGTGTTGGA | 0.13 |
| TGAGCCACGTGTGGGA | 0.01 |
| GTCAGCACGTGTTGTT | 0.13 |
| TAAGTCACGTGATCTG | 0.22 |
| CTCGGCACGTGTAGTT | 0.12 |
| GGTTGCACGTGTTGCT | 0.06 |
| CTGCTCACGTGTGGGA | 0.25 |
| TATGACACGTGGCTTG | -0.23 |
| TATTCCACGTGATTTT | 0.21 |
| CAAGGCACGTGAAGTG | 0.25 |
| ATAGACACGTGTGGTG | 0.03 |
| AAGGTCACGTGAGGCG | 0.22 |
| AATTACACGTGTGGGC | 0.21 |
| AGAGTCACGTGTGAGG | 0.15 |
| ATGCACACGTGGTTTG | -0.13 |
| TTTAGCACGTGAGCGT | 0.1 |
| TAGAGCACGTGGTCTT | -0.2 |
| AGTTTCACGTGTCGCG | 0.25 |
| GATTACACGTGTCTGT | 0.18 |
| GTGTTCACGTGAGAGA | 0.5 |
| GGAAACACGTGGCTGT | 0 |

| Sequence | relative binding free energy [kcal/mol] |
| --- | --- |
| CATGACACGTGTTTTG | -0.02 |
| TAGGGCACGTGTGTAT | 0.01 |
| GGGCTCACGTGTGGTT | 0.29 |
| GATCACACGTGGGTGT | 0.01 |
| TTTTTCACGTGAGGGC | 0.42 |
| TAAGCCACGTGGGGTG | -0.3 |
| TTCGTCACGTGAGGGA | 0.23 |
| GGCTGCACGTGGGAGC | 0 |
| GGTGCCACGTGTGGTT | 0.02 |
| GTGTACACGTGGGAGT | 0 |
| CTGGGCACGTGGGTGA | -0.38 |
| CTGGACACGTGTATGT | 0.01 |
| ACCGGCACGTGCGTGG | -0.07 |
| GGATGCACGTGAGGAT | 0.31 |
| ATCGGCACGTGTGTGG | -0.02 |
| TCTTACACGTGGGATG | -0.04 |
| GCATGCACGTGTGGGC | 0.15 |
| GGTGGCACGTGGATCA | -0.05 |
| TGACGCACGTGTAAGT | 0 |
| GGTATCACGTGCGCGT | 0.01 |
| CGTGGCACGTGTGGCC | -0.02 |

| Sequence | relative binding free energy [kcal/mol] |
| --- | --- |
| TAGTTCACGTGTAAGG | 0.25 |
| ACTGTCACGTGGGGGT | -0.18 |
| TTCTGCACGTGATGGC | 0.17 |
| ATTAGCACGTGATTGT | 0.01 |
| CCTGTCACGTGTGTTT | 0.09 |
| TAGTGCACGTGACTGT | 0.02 |
| TGTGTCACGTGTGTAT | 0.04 |
| TTGTTCACGTGATGCT | 0.18 |
| GTCCTCACGTGTGAGG | 0.29 |
| TCTTGCACGTGTTCAT | 0.1 |
| TGCGTCACGTGACTGT | 0.3 |
| TTTGTCACGTGAGCGG | 0.27 |
| TCTAGCACGTGAAGTG | 0.16 |
| AGGCGCACGTGGATTA | -0.03 |
| GGTTGCACGTGTACTA | 0.13 |
| ATTTGCACGTGTAACG | 0.08 |
| GCTGTCACGTGTTCGG | 0.04 |
| GTTGTCACGTGAGGAA | 0.31 |
| TCAGGCACGTGTAGTA | 0.01 |
| GATGTCACGTGATAGA | 0.29 |
| TGCCGCACGTGGTTTG | -0.17 |
